The text below walks through data of article PMC4336329 (PLoS ONE, 2015).

Structures are written as SMILES. About 2,200 (0.71%) of roughly 310,000 compounds showed an effect of 50% or more. Effects have a minus sign here. This is one part of the list.

In the assay the target is human ether-à-go-go-related gene (hERG) potassium channel (human, UniProt Q12809). In words: primary screen, population patch clamp on CHO cells stably expressing hERG.
Sequence of human ether-à-go-go-related gene (hERG) potassium channel (Q12809 whole entry, looked up): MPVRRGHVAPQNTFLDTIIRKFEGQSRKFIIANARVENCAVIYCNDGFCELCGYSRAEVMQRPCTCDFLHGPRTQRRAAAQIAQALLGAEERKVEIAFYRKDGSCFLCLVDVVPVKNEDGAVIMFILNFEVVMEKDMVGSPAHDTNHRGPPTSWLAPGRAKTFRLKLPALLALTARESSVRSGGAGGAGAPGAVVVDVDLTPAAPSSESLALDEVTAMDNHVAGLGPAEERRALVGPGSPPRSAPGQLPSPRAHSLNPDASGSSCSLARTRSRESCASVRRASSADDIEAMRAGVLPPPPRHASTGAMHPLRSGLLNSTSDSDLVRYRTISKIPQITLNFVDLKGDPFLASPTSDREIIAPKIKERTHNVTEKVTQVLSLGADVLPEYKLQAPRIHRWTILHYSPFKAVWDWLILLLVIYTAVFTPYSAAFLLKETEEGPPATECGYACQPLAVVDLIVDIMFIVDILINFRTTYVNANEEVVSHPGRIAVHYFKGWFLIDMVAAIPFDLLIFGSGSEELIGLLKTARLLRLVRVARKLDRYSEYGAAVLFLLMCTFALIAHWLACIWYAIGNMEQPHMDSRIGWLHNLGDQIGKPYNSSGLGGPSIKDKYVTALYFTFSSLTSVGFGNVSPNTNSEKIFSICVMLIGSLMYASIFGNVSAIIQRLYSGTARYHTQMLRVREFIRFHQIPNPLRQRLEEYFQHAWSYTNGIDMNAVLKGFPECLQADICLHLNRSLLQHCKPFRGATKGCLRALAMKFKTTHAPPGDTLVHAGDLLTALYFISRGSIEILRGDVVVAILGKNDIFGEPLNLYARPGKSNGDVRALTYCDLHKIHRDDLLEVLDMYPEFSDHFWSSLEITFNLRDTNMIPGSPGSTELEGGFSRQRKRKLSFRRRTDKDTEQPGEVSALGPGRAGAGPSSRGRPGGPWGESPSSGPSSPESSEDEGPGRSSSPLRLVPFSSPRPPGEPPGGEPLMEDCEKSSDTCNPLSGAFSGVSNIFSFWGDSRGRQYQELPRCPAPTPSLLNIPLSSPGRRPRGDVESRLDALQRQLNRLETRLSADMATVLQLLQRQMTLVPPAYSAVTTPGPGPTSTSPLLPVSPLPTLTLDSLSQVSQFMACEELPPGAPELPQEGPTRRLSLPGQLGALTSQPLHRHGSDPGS
With `CCn1nccc1C(=O)Nc1ccc(Cl)cn1`, the “hERG current change (%, negative = inhibition) at 1uM” value was determined as 11%.
For `O=C(OCn1nnc2ccccc2c1=O)c1ccc2c(=O)n3c(nc2c1)CCC3` the value was 4.92%; for `Clc1nc(-c2ccccc2)c2ccccc2n1`, 12.6%.
With `CCCCNC(=S)NNC(=O)c1sccc1C`, the “hERG current change (%, negative = inhibition) at 1uM” value was 1.63%.
In the case of `O=C(NCc1ccc2c(c1)OCO2)C(=O)NCC1OCCN1S(=O)(=O)c1ccc(F)cc1` (stereo not shown) it was 4.42%; in that of `CCOC(=O)c1cc2c(ccn2C)n1CC(=O)N1CCCC(C)C1` (stereo not shown), 3.59%; in that of `CCCCN1C(=O)/C(=C2/Sc3ccc(Cl)cc3N2CC)SC1=S`, 13.4%.
For `Nc1cc(C(=O)OCC(=O)NCc2ccco2)ccc1Cl` the value was 7.2%.
In the case of `O=C(C[n+]1ccccc1)Nc1ccc(Oc2ccccc2)cc1.[Cl-]` it was 11.7%.
As for `NC(=O)Nc1cccc(C(F)(F)F)c1`, the “hERG current change (%, negative = inhibition) at 1uM” value was determined as 9.97%.
In the case of `C#CCCOC(=O)N1C2=NC(C(=O)OC)=C(C(=O)OC)[C@@H]3N(C)c4ccc(OC)cc4[C@]23C[C@H]1C(=O)OC` it was -0.338%; in that of `Cn1c(C2CCCN2C(=O)OC(C)(C)C)n[nH]c1=S` (stereo not shown), 7.14%.
As to `CC(=O)Nc1cccc(NC(=O)CSc2nnnn2Cc2ccccc2)c1`, the “hERG current change (%, negative = inhibition) at 1uM” value was 4.42%.
For `CCOc1ccc(N(CC(=O)NCc2ccccc2)C(=O)CCC(=O)Nc2nccs2)cc1` the value was -2.78%.
For `COc1ccc(C2SCC(=O)N2c2ccc(OC)cc2)cc1` (stereo not shown) the value was 13.5%; for `CC(C)(C)c1ccc(Oc2ccc(NC(=O)c3ccccc3C(=O)O)cn2)cc1`, 10.8%; for `O=C(c1ccc(F)c(F)c1)N1CCC2(CC1)NCCc1[nH]cnc12`, 16%.
In the case of `Cc1nnc(SCC(=O)N(C)c2c(N)n(Cc3ccccc3)c(=O)[nH]c2=O)n1Cc1ccccc1` it was 9.85%.
On to `COC(=O)c1ccc(CN2CCN(CCC(C)C)C(CCO)C2)cc1` (stereo not shown), for which the “hERG current change (%, negative = inhibition) at 1uM” value is -1.92%.
In the case of `O=C(CN=C1NS(=O)(=O)c2ccccc21)OCC(=O)c1ccccc1` it was 10.8%.
As to `COc1cccc(-c2nnc(NC(=O)c3ccc(S(=O)(=O)N(CC(C)C)CC(C)C)cc3)o2)c1`, the “hERG current change (%, negative = inhibition) at 1uM” value came to 15.7%.
Turning to `CCOC(=O)C(O)(c1ccc(NC(=O)Oc2ccccc2)cc1)C(F)(F)F` (stereo not shown), the “hERG current change (%, negative = inhibition) at 1uM” value was -0.695%.
In the case of `O=C(NCc1ccc(Cl)cc1)C(=O)N/N=C/c1ccc(Br)cc1` it was 23.1%; in that of `COCC1CCN(C(=O)c2ccc(OC)c(OC3CCN(C(C)C)CC3)c2)CC1`, 19.2%.
In the case of `CCOc1ccc2nc(N/C(N)=N/C(=S)Nc3ccc(OC)cc3)nc(C)c2c1` it was 8.56%.
On to `CSc1nc2ccccc2s1`, for which the “hERG current change (%, negative = inhibition) at 1uM” value is 12.5%.
For `Cc1c(C(=O)NCc2cccnc2)oc2ccc(S(=O)(=O)N3CC(C)CC(C)C3)cc12` (stereo not shown) the value was 13.6%.
In the case of `CCOC(=O)C1CCN(C(=O)c2cccc(S(=O)(=O)N3CCc4ccccc43)c2)CC1`, the “hERG current change (%, negative = inhibition) at 1uM” value amounted to 2.73%.
Take `Cc1ccc2nc(-c3ccc(NC(=O)CCS(=O)(=O)c4ccccc4)cc3)sc2c1`: the “hERG current change (%, negative = inhibition) at 1uM” value was 4.86%.
In the case of `CCOC(=O)c1cc(OC(=O)c2cccc([N+](=O)[O-])c2)n(-c2ccccc2)n1` it was 6.6%.
In the case of `CCCn1c(=O)c2c(nc3n2CC(C)CN3Cc2ccccc2)n(C)c1=O` (stereo not shown) it was 0.265%.
For `CCOc1ccc2nc(N(CCCN(C)C)C(=O)c3ccc4c(c3)CCCC4)sc2c1.Cl` the value was 8.43%.
On to `CC(C)NC(=O)c1sc2c(c1C(=O)Nc1cccnc1)CCCC2`, for which the “hERG current change (%, negative = inhibition) at 1uM” value was determined as 0.763%.
In the case of `CCC(C(=O)OCC(=O)Nc1ccc(OC)cc1OC)c1ccccc1` (stereo not shown), the “hERG current change (%, negative = inhibition) at 1uM” value is reported as 1.24%.
As to `CC(=O)Nc1cccc(OCC(O)Cn2c(C)nc3ccccc32)c1` (stereo not shown), the “hERG current change (%, negative = inhibition) at 1uM” value is given as 7.94%.
On to `COc1ccc(Cl)cc1CSc1ncn[nH]1`, for which the “hERG current change (%, negative = inhibition) at 1uM” value is 10.5%.
For `O=C(CCNC(=O)c1ccco1)Nc1ccccc1` the value was 8.86%.
For `O=C(NCCC1=CCCCC1)c1ccc(F)cc1` the value was 6.69%; for `CCc1nc2cc(Cl)c(Cl)cc2[nH]1`, 6.03%.
In the case of `O=C(CSc1ncnc2nc[nH]c12)c1ccccc1` it was 17.4%; in that of `O=C(O)CCC(=O)c1ccc2ccc3cccc4ccc1c2c34`, 14.1%; in that of `CCN(Cc1ccccc1)C(=O)CS(=O)(=O)c1ccccc1`, 0.823%.
In the case of `COc1ccc(C2(C)NC(=O)N(CC(=O)Nc3ccc(C)cc3Br)C2=O)cc1OC` (stereo not shown), the “hERG current change (%, negative = inhibition) at 1uM” value came out at 9.71%.
In the case of `C=CCOc1c(Br)cc(/C=N\n2nnnc2N)cc1OC` it was 2.84%; in that of `COc1ccc2c(c1)c(C(=O)N/N=C/c1cccc(O)c1)c(C)n2C`, 1.51%.
In the case of `O=C(NC1=NCCS1)c1ccc(Cl)c(S(=O)(=O)N2CCCC2)c1` it was 10.5%.
For `O=C1CC(c2ccccc2)CC(O)=C1C=NC1CCCCCC1` (stereo not shown) the value was 12.8%; for `CCN1/C(=C2/SC(=S)N(NC(C)=O)C2=O)Sc2ccccc21`, 14.8%.
For the molecule `COc1ccc(S(=O)(=O)N2CCN(C(=O)C3CC3)CC2)cc1Br`, the “hERG current change (%, negative = inhibition) at 1uM” value is given as -5.19%.
Consider `O=C(O)c1ccc(NC2=C(n3nnc4ccccc43)C(=O)c3ccccc3C2=O)cc1`, for which the “hERG current change (%, negative = inhibition) at 1uM” value stood at 2.14%.
In the case of `CCN(CC)S(=O)(=O)c1cc(NC(=O)CN2C(=O)NC3(CCCc4ccccc43)C2=O)ccc1C` (stereo not shown) it was 7.67%; in that of `O=C(O)C(=O)O.OC(COC1CCCCC1)C[NH+]1CCCCC1` (stereo not shown), 10.5%.
For `CCN1CCN(C(=S)c2ccc(OCC(=O)NCc3ccccc3)cc2)CC1` the value was 10.8%.
For `O=C(NCCN1CCCCC1)Nc1ccc([N+](=O)[O-])cc1` the value was 8.5%; for `COc1ccc(/C=C/C(=O)C2(O)CCCCC2)cc1`, 5.58%.
Turning to `O=C(O)c1cc(-c2ccc(-c3c(-c4ccc5c(c4)OCO5)noc3-c3ccsc3)cc2)nc2ccccc12`, the “hERG current change (%, negative = inhibition) at 1uM” value amounted to 9.2%.
With `CCC(C)[C@H]1COCCS(=O)(=O)N1Cc1ccccc1` (stereo partly shown), the “hERG current change (%, negative = inhibition) at 1uM” value was determined as 7.03%.
For `O=C(c1ccc(OC2CCN(C(=O)c3cccnc3)CC2)cc1)N1CCCCCC1` the value was 11.6%.
With `CC1CC(C)CN(CCCNC(=O)c2ccc3c(SCC(=O)O)c4c(nc3c2)CCC4)C1` (stereo not shown), the “hERG current change (%, negative = inhibition) at 1uM” value was 14.9%.
In the case of `CC(C)CC(=O)NN(C)c1nc(-c2ccccc2)nnc1C(F)(F)F` it was 14.7%.
For `C=CCNC(=O)C(C(=O)OCC)C1CCCCC1` (stereo not shown) the value was -18.2%.
In the case of `Cn1c(CN2CCCCC2)nc2cc(NC(=O)c3cccc(Br)c3)ccc21` it was -20.1%; in that of `O=C(NCc1ccccn1)c1ccc(OC2CCN(Cc3ccccc3O)CC2)cc1`, 10.9%.
With `COc1ccc(Cl)cc1N(CC(=O)N1CCCC1)S(C)(=O)=O`, the “hERG current change (%, negative = inhibition) at 1uM” value was 14.3%.
For `Cc1onc(-c2ccccc2)c1C(=O)N1CCOC12CCN(c1cccc(F)n1)CC2` the value was -3.6%; for `COc1ccc(CCNCc2ccc(SC)cc2)cc1`, -39.3%; for `Cc1cccc(C(C(=O)NC2CCCC2)N(Cc2cccnc2)C(=O)c2csnn2)c1` (stereo not shown), 11.2%.
For `COC(=O)c1cc(Cl)c(NC(=O)/C=C/c2ccc(Cl)cc2Cl)cc1OC` the value was -0.34%; for `O=[N+]([O-])c1cccc(CN2CCN(c3ncccn3)CC2)c1`, 11.9%.
For `COc1ccc(Cl)cc1NC(=O)C(C)N(C)Cc1cccc(Cl)c1Cl` (stereo not shown) the value was 3.57%; for `COc1ccc(N2CC(O)=C(c3nc4ccccc4s3)C2=N)c(OC)c1`, 0.0083%.
As for `O=c1[nH]c(=O)c2nc3ccccc3nc2[nH]1`, the “hERG current change (%, negative = inhibition) at 1uM” value is listed as 2.78%.
Consider `O=C(CCN1C(=O)S/C(=C\c2ccccc2)C1=O)Nc1ccc(S(=O)(=O)Nc2nccs2)cc1`, for which the “hERG current change (%, negative = inhibition) at 1uM” value was 7.83%.
In the case of `Cc1cc([N+](=O)[O-])ccc1N=Nc1c(N)[nH]n(-c2ccccc2)c1=O` it was 15.2%; in that of `CCN(CC(=O)Nc1ccc(NC(C)=O)cc1)C(=O)Cc1coc2cc(C)c(C)cc12`, 4.07%; in that of `COc1ccc(OCC(=O)Nc2ccc3c(c2)CCC3)cc1`, 11.8%.
For `S=C(NCCCN1CCOCC1)Nc1ccc(Cl)cc1` the value was 1.8%; for `Cc1ccc(Nc2cnn(C34CC5CC(CC(CC(=O)O)(C5)C3)C4)c(=O)c2Cl)c(Cl)c1`, 16.5%.
In the case of `CN(CC(=O)Nc1ccc(S(=O)(=O)N(C)C)cc1)Cc1ccc(C(F)(F)F)cc1` it was 11.8%; in that of `OC1(c2cccs2)CN(c2ccccc2)C2=[N+]1CCCC2.[Br-]` (stereo not shown), 10.6%.
Consider `CC1(CCC(=O)N2CCCC(Nc3ccc(F)cc3)C2)CC1` (stereo not shown), for which the “hERG current change (%, negative = inhibition) at 1uM” value stood at 4.38%.
In the case of `CCn1c(SCC(=O)N2c3ccccc3CCc3ccccc32)nnc1-c1ccc(OC)cc1` it was 11.8%.
As to `O=[N+]([O-])c1ccc(NC(=S)N2CCN(c3ccccn3)CC2)cc1`, the “hERG current change (%, negative = inhibition) at 1uM” value is given as 6.94%.
For `Cc1ccc(OCC(=O)Nc2ccc3c(c2)OCO3)c([N+](=O)[O-])n1` the value was 10.1%; for `CCOc1ccc(OCCCC(=O)O)cc1`, -4.88%.
For `Cc1c(NC(=O)COC(=O)c2ncc(Cl)c(Cl)c2Cl)c(=O)n(-c2ccccc2)n1C` the value was 9.8%; for `COc1ccc2c(c1)CCC1=C2NC(=S)NC1c1ccc(N(C)C)cc1` (stereo not shown), 11.7%.
As for `COC(=O)C1=C(c2cc3ccccc3o2)C[C@@H]2CC[C@H]1N2C(=O)NCCCOC(C)C`, the “hERG current change (%, negative = inhibition) at 1uM” value was 0.0739%.
